According to the supplement of paper PMC4166925:
± gives the standard deviation of the averaged measurements. Over roughly 33,000 sequences, “E-score (dimensionless, -0.5 to 0.5)” has its median near -0.046; the highest 2% begin near 0.36. The list shows a part of the results.

Test system: T1, SpTbr T-box DNA-binding domain (GST fusion)
T1 sequence: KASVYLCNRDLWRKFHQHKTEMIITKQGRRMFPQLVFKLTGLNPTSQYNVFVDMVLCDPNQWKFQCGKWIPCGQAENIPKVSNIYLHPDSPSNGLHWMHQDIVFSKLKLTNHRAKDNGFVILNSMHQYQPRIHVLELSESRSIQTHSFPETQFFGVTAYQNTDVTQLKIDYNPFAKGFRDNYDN
Assay: PBM E-score of 8-mer (E-score (dimensionless, -0.5 to 0.5)); Tbr is Tbrain of the sea star Patiria miniata (Pm) or the sea urchin Strongylocentrotus purpuratus (Sp); higher = stronger binding preference; most listed sequences are background and not binding sites
Settings: the construct has about 5 more residues each side
Description: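 Universal protein-binding microarray (Agilent AMADID 016060, 60-bp probes with a 35-bp variable region) incubated with 200 nM GST-fused Strongylocentrotus purpuratus Tbr T-box DNA-binding domain (residues 362-554) in PBS pH 7.5. Scored for every ungapped 8-mer (given with its reverse complement) as E-score (range -0.5 to 0.5; >0.45 counts as bound) and Z-score of median probe intensity. Two replicate arrays (datasets 1 and 2).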
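Note: protein at 200 nM in PBS on universal double-stranded arrays.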

Sequence | PBM E-score of 8-mer
TCTCCTCA | 0.0194 ± 0.054
GGAGTCTA | -0.3069 ± 0.002
ATCCTTAA | -0.213 ± 0.12
ACATGGCC | -0.178 ± 0.071
ACAACCTA | 0.0497 ± 0.034
TTGACCAA | -0.091 ± 0.022
ACGAGTCG | 0.143 ± 0.0067
CGAAGGAG | -0.101 ± 0.069
CGTAACAA | 0.0582 ± 0.022
ATAAACTA | -0.125 ± 0.064
GAGAGACC | -0.14 ± 0.014
ACTCGAAA | 0.0211 ± 0.025
ACGTCCGC | 0.148 ± 0.045
TACATCTA | -0.1835 ± 0.00045
ACAACCGT | 0.153 ± 0.0027
GTCTCTGA | -0.296 ± 0.031
CGCTTTAA | -0.169 ± 0.035
AATGTCAC | 0.237 ± 0.025
ATTCTGTC | 0.04 ± 0.016
ACATAGCT | -0.119 ± 0.059
GTTGTCAA | 0.3671 ± 0.0033
GGAATACC | -0.131 ± 0.045
AGAAAACC | -0.00144 ± 0.037
GCTATTAA | 0.155 ± 0.1
CCCGGTCA | -0.0266 ± 0.01

Sequence | PBM E-score of 8-mer
GCACATGA | 0.164 ± 0.041
TCACTTAA | 0.215 ± 0.02
ACCATTAG | -0.0362 ± 0.048
GTAATACA | -0.158 ± 0.041
ATATTGAC | 0.000605 ± 0.011
AAGCCCCT | -0.221 ± 0.016
CGACGTTA | -0.0348 ± 0.047
ACTACGGC | -0.00424 ± 0.021
GACGCGGC | -0.0197 ± 0.021
CAAGCGGC | 0.0648 ± 0.041
ACTTGACA | 0.347 ± 0.0064
CTCTTTAC | -0.0208 ± 0.066
ATTGACCC | 0.00364 ± 0.0032
ACTCAACG | -0.043 ± 0.033
ACTTAAGG | -0.0537 ± 0.012
ACGGCGCT | 0.191 ± 0.023
ATAGGTGG | 0.268 ± 0.021
GGCTCATA | -0.195 ± 0.047
CATTCCGA | 0.0408 ± 0.0047
CTGATAGC | -0.0157 ± 0.028
CAAATCAG | -0.0928 ± 0.068
GGGGCCCA | -0.133 ± 0.067
TACGACGA | 0.0259 ± 0.0024
ACCCCAAA | -0.0614 ± 0.014
CCTAAATA | -0.198 ± 0.055

Sequence | PBM E-score of 8-mer
AGCACCTC | 0.4014 ± 0.004
AACAAGGG | -0.00315 ± 0.054
ATATTTCA | 0.0717 ± 0.045
CTCCCAAA | -0.169 ± 0.0039
AAGATCTG | -0.153 ± 0.021
CGCATCAA | -0.0381 ± 0.0058
AAAATGGT | -0.0435 ± 0.06
AAACAAAC | -0.228 ± 0.044
TGTAGGAA | 0.0214 ± 0.022
ATGTCCTA | -0.273 ± 0.07
ACATCCCT | -0.04 ± 0.0046
AAATACCG | -0.206 ± 0.044
CACGTCCC | 0.245 ± 0.049
AGGTTGAA | -0.223 ± 0.043
AAGAGCTG | -0.0319 ± 0.028
TTATAGAA | -0.26 ± 0.047
CGCCACAG | 0.0527 ± 0.03
AGGCCCAA | -0.279 ± 0.018
CCGAAATA | 0.0489 ± 0.0096
CCTGTTTC | -0.151 ± 0.011
ATTGAAAG | -0.0924 ± 0.022
AGCAGTCA | 0.0234 ± 0.013
AAACCGTG | 0.148 ± 0.012
ACTTTTGG | 0.0233 ± 0.0029
TATCCATA | -0.208 ± 0.0057

Sequence | PBM E-score of 8-mer
CCTGCAGC | -0.0772 ± 0.032
CCGTTACA | 0.00715 ± 0.011
GCCGCATA | -0.0209 ± 0.065
TATCGGGA | 0.0387 ± 0.084
AGTTAGTG | 0.0353 ± 0.021
AAATAGAT | -0.268 ± 0.054
TGCCAACA | 0.333 ± 0.0035
ACCGGCGA | -0.13855 ± 0.00012
CTCTATAA | -0.0438 ± 0.02
ATAAGCAC | 0.00483 ± 0.072
CATATAGG | 0.0518 ± 0.0081
TACTGACA | 0.132 ± 0.0027
ACTGTGAT | 0.242 ± 0.0029
AAACTATC | -0.145 ± 0.1
ACATCATC | -0.149 ± 0.06
CTGGGTGC | 0.209 ± 0.037
GGCCAATA | -0.125 ± 0.0026
CGATTCCG | -0.0784 ± 0.06
CTCGTAGA | -0.325 ± 0.04
AGCTTACA | 0.115 ± 0.012
TAGCGGCA | 0.115 ± 0.063
GGGAGGAA | -0.2 ± 0.0029
AAACCAGC | -0.063 ± 0.055
GAAGTGGA | -0.0393 ± 0.019
GGAGTATA | -0.277 ± 0.051

Sequence | PBM E-score of 8-mer
GACCTCCA | -0.196 ± 0.041
TCCGGCGA | -0.0986 ± 0.032
CCGGACAA | -0.149 ± 0.026
AACGCGGC | 0.0574 ± 0.041
CGGTCTTC | -0.0729 ± 0.0042
GTGATCGA | 0.175 ± 0.039
ATGAATGA | -0.1848 ± 0.0014
GGAAAGCC | -0.185 ± 0.019
CCCATGAG | -0.103 ± 0.0073
GTCCCTTA | -0.1 ± 0.0091
ATTGGCCA | -0.0538 ± 0.026
TGGTGCAA | 0.214 ± 0.0077
GAGAGCTA | -0.0489 ± 0.017
AACGACGA | 0.145 ± 0.018
GAAGATGA | 0.183 ± 0.031
ACCGTACA | -0.159 ± 0.05
GTACGCCA | -0.202 ± 0.0083
CTGACTAC | -0.224 ± 0.031
ACTAAACG | -0.214 ± 0.039
GCATGGCA | -0.0508 ± 0.02
CACCGCAC | 0.0824 ± 0.029
GCGAAACC | 0.307 ± 0.0033
ACGGGTAA | 0.000385 ± 0.077
CAGCTTGG | -0.00698 ± 0.044
CTAACCTC | -0.158 ± 0.041

Sequence | PBM E-score of 8-mer
GAGGCCCC | -0.296 ± 0.057
AGGCCCAT | -0.319 ± 0.025
AAAGGAAC | -0.038 ± 0.014
GCGCCCAA | 0.0396 ± 0.066
TCTATAGA | -0.374 ± 0.033
CCGAGAGC | -0.0317 ± 0.13
ATTAGCAA | -0.0446 ± 0.11
AAAGGTTA | -0.0434 ± 0.072
ACCGCCGC | 0.0379 ± 0.064
ACCGCGTC | 0.117 ± 0.036
TATCGTAA | -0.0909 ± 0.038
AAAAGCAG | -0.0199 ± 0.017
GGTGATAC | 0.221 ± 0.028
ATAAGGAC | -0.219 ± 0.013
CAACGGTA | -0.116 ± 0.029
ACACGTGC | 0.3851 ± 0.0015
ACGGGAGC | -0.113 ± 0.013
CACAGCAG | -0.0256 ± 0.044
CCAGATGA | -0.34398 ± 4.9e-05
TAGGTCCA | -0.152 ± 0.011
TATCTTAA | -0.137 ± 0.032
ATTATCAC | 0.29 ± 0.043
AATACGTA | -0.163 ± 0.082
CATGAACG | -0.106 ± 0.015
AGTCTCAC | 0.313 ± 0.0076

Sequence | PBM E-score of 8-mer
GGGGGCGA | -0.0505 ± 0.016
CTGCGTAC | -0.12 ± 0.058
CCCAAGCC | -0.2601 ± 0.00047
AATCGATT | -0.216 ± 0.034
CAGCCACA | 0.123 ± 0.04
CTGGCACC | 0.367 ± 0.018
GTGTGTAA | 0.27 ± 0.0036
AGAACCAC | -0.12 ± 0.029
ACGATCGT | -0.175 ± 0.055
CCTCTTGA | -0.071 ± 0.021
GGCCTGTA | -0.303 ± 0.0034
GTGGGGAA | 0.262 ± 0.0045
AAGGCCAT | -0.155 ± 0.0045
CTGCGCAC | 0.172 ± 0.038
GGTGTTAA | 0.472 ± 0.0062
GCCGGTCA | 0.175 ± 0.014
GCGAAACA | 0.151 ± 0.0083
ACCATTGC | -0.12 ± 0.034
CGAGTTAC | -0.0204 ± 0.029
CTCAATTC | -0.116 ± 0.14
CTCACGAG | 0.119 ± 0.028
AGAGGTTC | -0.172 ± 0.065
